# Article PMC8527048
# Chains of the proteins cited; added tags and fusions are not shown. Residues count along the entry.
# UniProt Q13586, residues 23-685: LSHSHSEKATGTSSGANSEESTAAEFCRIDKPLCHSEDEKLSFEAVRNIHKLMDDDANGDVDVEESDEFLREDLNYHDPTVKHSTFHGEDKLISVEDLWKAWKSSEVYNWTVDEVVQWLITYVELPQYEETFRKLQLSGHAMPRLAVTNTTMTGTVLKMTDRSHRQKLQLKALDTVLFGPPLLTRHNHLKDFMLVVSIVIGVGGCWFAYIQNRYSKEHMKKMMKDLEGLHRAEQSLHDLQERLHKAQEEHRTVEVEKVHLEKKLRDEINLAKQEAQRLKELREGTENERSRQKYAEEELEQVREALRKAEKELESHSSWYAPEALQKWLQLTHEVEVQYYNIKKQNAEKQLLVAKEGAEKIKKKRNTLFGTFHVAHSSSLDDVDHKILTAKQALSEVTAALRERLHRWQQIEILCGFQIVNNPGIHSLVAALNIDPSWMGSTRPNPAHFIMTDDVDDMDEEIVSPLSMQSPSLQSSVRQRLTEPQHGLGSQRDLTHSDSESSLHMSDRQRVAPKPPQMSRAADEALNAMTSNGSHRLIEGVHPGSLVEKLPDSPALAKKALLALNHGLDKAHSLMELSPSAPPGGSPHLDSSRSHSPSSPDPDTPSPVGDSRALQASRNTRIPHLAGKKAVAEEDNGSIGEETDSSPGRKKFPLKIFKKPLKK
# UniProt P70302, residues 23-685: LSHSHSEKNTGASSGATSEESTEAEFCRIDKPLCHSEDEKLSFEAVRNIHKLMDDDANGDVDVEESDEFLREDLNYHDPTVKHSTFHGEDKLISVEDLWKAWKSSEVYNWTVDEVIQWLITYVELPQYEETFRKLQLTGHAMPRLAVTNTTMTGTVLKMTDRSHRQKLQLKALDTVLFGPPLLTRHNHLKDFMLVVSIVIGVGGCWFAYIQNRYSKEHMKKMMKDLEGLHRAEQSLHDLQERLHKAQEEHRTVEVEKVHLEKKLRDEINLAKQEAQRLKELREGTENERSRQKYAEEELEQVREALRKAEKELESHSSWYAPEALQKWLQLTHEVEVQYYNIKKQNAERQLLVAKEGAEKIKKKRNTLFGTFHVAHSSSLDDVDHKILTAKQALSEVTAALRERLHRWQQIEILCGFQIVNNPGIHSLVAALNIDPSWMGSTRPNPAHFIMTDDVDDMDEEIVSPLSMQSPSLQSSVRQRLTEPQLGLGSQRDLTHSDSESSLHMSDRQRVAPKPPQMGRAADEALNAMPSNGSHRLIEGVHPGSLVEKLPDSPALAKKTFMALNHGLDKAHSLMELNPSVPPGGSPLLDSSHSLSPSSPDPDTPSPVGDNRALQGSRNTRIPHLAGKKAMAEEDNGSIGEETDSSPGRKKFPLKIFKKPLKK
# These are yes or no findings as the source states them, for the method shown. In cells and extracts the contact can be indirect. Some results given as binding are weak or reduced against the parent protein; the word gives no strength. Tags and fused reporters may be left off the sequences shown.
# T1: TS-5-LO (Twin-Strep-tagged 5-lipoxygenase) in HEK293FT cells (UniProt P48999)
# T1 sequence: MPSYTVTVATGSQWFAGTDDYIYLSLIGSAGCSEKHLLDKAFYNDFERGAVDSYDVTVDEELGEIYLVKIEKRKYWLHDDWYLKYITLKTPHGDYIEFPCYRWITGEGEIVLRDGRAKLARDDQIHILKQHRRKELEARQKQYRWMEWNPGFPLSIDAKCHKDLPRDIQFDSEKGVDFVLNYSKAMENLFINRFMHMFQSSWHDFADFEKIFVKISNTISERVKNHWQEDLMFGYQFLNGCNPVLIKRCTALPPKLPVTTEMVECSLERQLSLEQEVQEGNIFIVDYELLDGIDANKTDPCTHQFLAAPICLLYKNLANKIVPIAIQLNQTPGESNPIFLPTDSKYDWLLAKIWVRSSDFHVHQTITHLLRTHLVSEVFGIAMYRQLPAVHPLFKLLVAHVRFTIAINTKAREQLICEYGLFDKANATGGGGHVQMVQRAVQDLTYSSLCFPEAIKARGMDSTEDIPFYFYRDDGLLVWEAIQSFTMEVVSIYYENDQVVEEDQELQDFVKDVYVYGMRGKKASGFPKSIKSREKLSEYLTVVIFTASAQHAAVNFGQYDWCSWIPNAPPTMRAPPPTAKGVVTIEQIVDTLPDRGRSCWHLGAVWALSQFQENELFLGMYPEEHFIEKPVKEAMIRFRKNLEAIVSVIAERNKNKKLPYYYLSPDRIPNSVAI
# T2: GST-ORMDL3 (UniProt Q9CPZ6)
# T2 sequence: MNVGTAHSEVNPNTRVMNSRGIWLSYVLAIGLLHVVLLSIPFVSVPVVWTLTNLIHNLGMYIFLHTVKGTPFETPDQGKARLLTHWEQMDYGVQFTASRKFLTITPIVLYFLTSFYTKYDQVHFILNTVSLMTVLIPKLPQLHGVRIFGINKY
# T3: GST-5-LO (UniProt P48999)
# T3 sequence: T1 sequence
# T4: ORMDL3-MYC (UniProt Q9CPZ6)
# T4 sequence: T2 sequence
# T5: TS-5-LO (Twin-Strep-tagged 5-lipoxygenase) in BMMCL (UniProt P48999)
# T5 sequence: T1 sequence
# T6: ORMDL3 Twin-Strep tag (TS) (UniProt Q9CPZ6)
# T6 sequence: T2 sequence
# T7: GST-LTC4 synthase (LTC4S) (UniProt Q60860)
# T7 sequence: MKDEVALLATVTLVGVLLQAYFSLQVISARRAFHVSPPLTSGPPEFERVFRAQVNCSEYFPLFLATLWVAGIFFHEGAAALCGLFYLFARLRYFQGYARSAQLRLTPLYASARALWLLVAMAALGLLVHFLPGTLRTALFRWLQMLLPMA
# T8: GST-FLAP (UniProt P30355)
# T8 sequence: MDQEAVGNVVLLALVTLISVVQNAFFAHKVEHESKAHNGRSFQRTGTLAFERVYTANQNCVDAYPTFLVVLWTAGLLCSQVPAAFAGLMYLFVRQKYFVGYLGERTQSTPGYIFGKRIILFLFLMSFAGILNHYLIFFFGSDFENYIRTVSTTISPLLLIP
# B1: 5-lipoxygenase (5-LO), endogenous in mouse mast cells (enzyme, UniProt P48999 1-674)
# chain: T1 sequence
# B2: SPTLC1, endogenous in mouse mast cells (protein, UniProt O35704 1-473)
# chain: MATVAEQWVLVEMVQALYEAPAYHLILEGILILWIIRLVFSKTYKLQERSDLTAKEKEELIEEWQPEPLVPPVSKNHPALNYNIVSGPPTHNIVVNGKECVNFASFNFLGLLANPRVKATAFSSLKKYGVGTCGPRGFYGTFDVHLDLEERLAKFMKTEEAIIYSYGFSTIASAIPAYSKRGDIIFVDSAACFAIQKGLQASRSDIKLFKHNDVADLERLLKEQEIEDQKNPRKARVTRRFIVVEGLYMNTGTICPLPELVKLKYKYKARIFLEESLSFGVLGEHGRGVTEHYGISIDDIDLISANMENALASVGGFCCGRSFVVDHQRLSGQGYCFSASLPPLLAAAAIEALNIMEENPDIFAVLKKKCQNIHKSLQGVSGLKVVGESLSPALHLQLEESTGSREKDVKLLQAIVDQCMDKGIALTQARYLDKEEKCLPPPSIRVVVTVEQTEEELQRAASTIREAAQAVLL
# B3: SPTLC2 (lower, membrane-bound band), cells not stated (protein, UniProt P97363 1-560)
# chain: MRPEPGGCCCRRPMRANGCVKNGEVRNGYLRSSTATVAAAGQIHHVTENGGLYKRPFNEAFEETPMLVAVLTYVGYGVLTLFGYLRDFLRHWRIEKCHHATEREEQKDFVSLYQDFENFYTRNLYMRIRDNWNRPICSVPGAKVDIMERKSHDYNWSFKYTGNIIKGVINMGSYNYLGFARNTGSCQEAAAEVLKEYGAGVCSTRQEIGNLDKHEELEKLVARFLGVEAAMTYGMGFATNSMNIPALVGKGCLILSDELNHASLVLGARLSGATIRIFKHNNMQSLEKLLKDAIVYGQPRTRRPWKKILILVEGIYSMEGSIVRLPEVIALKKKYKAYLYLDEAHSIGALGPSGRGVVDYFGLDPEDVDVMMGTFTKSFGASGGYIGGKKELIDYLRTHSHSAVYATSMSPPVMEQIITSMKCIMGQDGTSLGKECIQQLAENTRYFRRRLKEMGFIIYGNEDSPVVPLMLYMPAKIGAFGREMLKRNIGVVVVGFPATPIIESRARFCLSAAHTKEILDTALKEIDEVGDLLQLKYSRHRLVPLLDRPFDETTYEETED
# B4: ^35S-5-LO (enzyme, UniProt P48999 1-674)
# chain: T1 sequence
# modifications: 35S-labeled L-methionine
# B5: ^35S-ORMDL3 (protein, UniProt Q9CPZ6 1-153)
# chain: T2 sequence
# modifications: 35S-labeled L-methionine
# How the values were obtained:
# [1] = target: T1, TS-5-LO (Twin-Strep-tagged 5-lipoxygenase) in HEK293FT cells; experiment: pull-down; Strep-Tactin Superflow resin holds the TS-tagged protein from postnuclear lysates (1% CHAPS, 50 mM Hepes-KOH, 150 mM KOAc, pH 6.8, 4°C) of transduced HEK293FT cells, resting or activated with thapsigargin (0, 3, 15, 25 min); immunoblot
# GST-ORMDL3 [2] = target: T2, GST-ORMDL3; experiment: pull-down; GST pull-downs combined with BMMC lysates containing endogenous levels of the proteins; immunoblot; only the target purified
# GST-5-LO [3] = target: T3, GST-5-LO; experiment: as above
# GST-ORMDL3 [4] = target: T2, GST-ORMDL3; experiment: as above; remark: listed apart in the source
# ORMDL3-MYC = target: T4, ORMDL3-MYC; experiment: condition: only cells not activated with thapsigargin; co-IP; anti-MYC immunoprecipitate of ORMDL3-MYC from BMMCL not activated with thapsigargin; SDS-PAGE, Coomassie blue staining
# GST-5-LO [5] = target: T3, GST-5-LO; experiment: pull-down; GST pull-downs combined with BMMC lysates containing endogenous levels of the proteins; immunoblot; only the target purified; remark: listed apart in the source
# [6] = target: T5, TS-5-LO (Twin-Strep-tagged 5-lipoxygenase) in BMMCL; experiment: pull-down; Strep-Tactin Superflow resin holds the TS-tagged protein from postnuclear lysates (1% CHAPS, 150 uM glutathione, pH 6.8, 4°C) of BMMCL, resting or antigen (TNP-BSA)-activated; immunoblot
# [7] = target: T6, ORMDL3 Twin-Strep tag (TS); experiment: pull-down; ORMDL3 Twin-Strep tag as bait; immunoblot with SPTLC2 antibody ab23696; cells not given
# GST-ORMDL3 [8] = target: T2, GST-ORMDL3; experiment: pull-down; GST-tagged protein from bacterial lysate on glutathione agarose beads, washed; in vitro-translated 35S-methionine-labeled protein added, 1 h at 4°C, Hepes-KOH buffer pH 6.8 with 1% CHAPS and 5 mM DTT; autoradiography; only the target purified
# [9] = target: T7, GST-LTC4 synthase (LTC4S); experiment: as above
# GST-FLAP = target: T8, GST-FLAP; experiment: as above
# GST-5-LO [10] = target: T3, GST-5-LO; experiment: as above
molecule,measurement,setting,value
"stromal interaction molecule 1 (STIM1), endogenously expressed in HEK293FT (from UniProt Q13586 23-685)",binding,[1],no binding
"stromal interaction molecule 1 (STIM1), endogenous in BMMC (from UniProt P70302 23-685)",binding,GST-ORMDL3 [2],no binding
same,binding,GST-5-LO [3],no binding
B1,binding,GST-ORMDL3 [4],binds
same,binding,ORMDL3-MYC,no binding
B2,binding,GST-ORMDL3 [4],binds
same,binding,GST-5-LO [5],binds
same,binding,[6],binds
B3,binding,[7],binds
B4,binding,GST-ORMDL3 [8],binds
same,binding,[9],binds
same,binding,GST-FLAP,binds
same,binding,GST-5-LO [10],binds
B5,binding,GST-5-LO [10],binds
